According to the supplement of paper PMC11417369:
The list shows a part of the results.

system: PfAP2-HC AP2 domain (GST-tagged); assay: gcPBM binding intensity (ln(normalized median fluorescence intensity)); higher = stronger DNA binding
Outline: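 The binding buffer was 1× PBS containing 1% milk, 0.2 mg/ml BSA, 0.5% salmon testes DNA and 0.03% Triton X-100. In it, GST-tagged P. falciparum DNA-binding domains expressed in E. coli were applied for 1 h to an Agilent 4 × 180k array of primer-extended double-stranded 36-bp intergenic genomic probes plus negative controls. Binding intensity, read with Alexa488 anti-GST antibody and a 488 nm scan, is the highest Masliner-normalised natural-log median intensity across replicate spots of either probe orientation.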

Compared with “GTTGAAAAAAATATATGTACGTATATATGTATGTAT [XGTACX_site8201]”, “TTGTTTATATATATATGTACATATTTTAAGGCATCC [XGTACX_site6976]” is lower in “gcPBM binding intensity (ln)” value: 9.82 for the first, 9.44 for the second.

Going from “CCACGTATACGATGCACACGTATGCTTTATATATAG [CACACA_site4108]” to TTTATTTTGTTTATGGTGCATTTTATGTAAATATAT, the “gcPBM binding intensity (ln)” value rises from 9.74 to 9.77.

Compared with “AAAATATATTATTATTGTACATATATTTTCATTTAC [XGTACX_site4593]”, “AATTTTTATACGGATACACACAAAAAAAAATAAAAA [CACACA_site897]” is lower in “gcPBM binding intensity (ln)” value: 9.86 for the first, 9.78 for the second.

First: TAAATATATTTATAAGCACACACTAATAAACCCACA [CACACA_site390]
Second: AAGGCATATATAATTTGTACATATTAAGAATTAGAT [XGTACX_site8660]
The “gcPBM binding intensity (ln)” value of the first is higher: 10.7 for the first, 9.66 for the second.

Compared with “AAGAAAATAAAAAGGTAAATATGTATAAATAAATAA [TGCATGCA_negctrl_site88]”, “TTTTTTGAAAATAAATGTACGAATTTTATATTTAAA [XGTACX_site2768]” is lower in “gcPBM binding intensity (ln)” value: 9.73 for the first, 9.21 for the second.

Compared with “TGAAATAAAATTATTTGTACATATCGGAAAAAAAAA [XGTACX_site7131]”, “AAATTACCCATCCATACACACATATTTTTTTTAATT [CACACA_site2189]” is higher in “gcPBM binding intensity (ln)” value: 9.45 for the first, 10.2 for the second.

Going from “GATACAGATGGACACACACACATACATAAATACATA [CACACA_site5833]” to “AATAAATAAATAAATAAATAAATATATATATATATA [GTGCAC_negctrl_site330]”, the “gcPBM binding intensity (ln)” value falls from 11.3 to 9.58.

First: TAATGACAATAAAAATAAATAAATAAAAAAAAAAAA [TGCATGCA_negctrl_site321]
Second: ATATATTATCTGTACACACACATATAAGGGATTATA [CACACA_site4180]
The “gcPBM binding intensity (ln)” value of the first is lower: 9.55 for the first, 10.3 for the second.

Compared with “TTATGCATATATTATGCATGTAGTTTTAAATCACAT [TGCATGCA_site104]”, “TATATACACATTTTTATACACACTTGTTTTATAAAA [CACACA_site8139]” is higher in “gcPBM binding intensity (ln)” value: 9.51 for the first, 9.83 for the second.

Compared with “AAAAAATACATACATACACACATATTTATTTATATA [CACACA_site6554]”, “GCACAAATATATATATATATATATATATATATATAT [GTGCAC_negctrl_site661]” is lower in “gcPBM binding intensity (ln)” value: 9.99 for the first, 9.52 for the second.

Going from “ATAATTATATACCATGCACACAAATATTCATACAGG [CACACA_site9343]” to “AAGAACCATATTTAAACACACATACCTATATAAATA [CACACA_site7553]”, the “gcPBM binding intensity (ln)” value falls from 9.9 to 9.88.

Compared with “TACAATATAAAATACACACACACAAACATATATTTA [CACACA_site5941]”, “TATATATATTTATAATGTACACATATATGTAAATAT [XGTACX_site3695]” is lower in “gcPBM binding intensity (ln)” value: 10.5 for the first, 9.66 for the second.

Going from “TGCCCTAACCATACTACACACACTGCTCAAAATAGT [CACACA_site2219]” to “ATACGAATAAATTTCGCATGCAGCATATATATCAAT [TGCATGCA_site612]”, the “gcPBM binding intensity (ln)” value falls from 10.6 to 9.62.

First: TGTACAAATATGTTGAAAATAAAATTTCAATATATT [XGTACX_negctrl_site13]
Second: AACGAAAATAAGAAAAGTACAAAAAATACCAAATAA [XGTACX_site6171]
The “gcPBM binding intensity (ln)” value of the first is lower: 9.32 for the first, 9.76 for the second.

Going from “ATATATATATATAATACACACTTATGAAATGTCTAA [CACACA_site5077]” to “TTAATACATACATTCACACACACTAATTGTATATTT [CACACA_site9362]”, the “gcPBM binding intensity (ln)” value rises from 9.84 to 10.3.

Compared with “TTCTTTTTTCGACACACACACACAAGAAGATATATA [CACACA_site7456]”, “TAAATTATAAATTGCACACATATTTTTATATTTATA [CACACA_site2976]” is lower in “gcPBM binding intensity (ln)” value: 10.5 for the first, 9.77 for the second.

Compared with “ATATTTTTAGATTCAGAAAAAAGATTCAACTTACTC [CACACA_negctrl_site1357]”, “TATTTCATATGAAGAAGTACTATTAATAATTTCCTT [XGTACX_site6587]” is higher in “gcPBM binding intensity (ln)” value: 9.42 for the first, 9.48 for the second.

First: ATATATGCATATATATGTACATATATATATATATAT [XGTACX_site7403]
Second: AATAAATAAAAAATTACACACATATATATAAATATA [CACACA_site3434]
The “gcPBM binding intensity (ln)” value of the first is lower: 9.66 for the first, 9.85 for the second.

Going from “AAAAATAAAGGGTGTGCACACAAAAATATATATATA [CACACA_site1727]” to “ATAATATATTTAATCATACACACATTTATGTACCTA [CACACA_site1719]”, the “gcPBM binding intensity (ln)” value falls from 11 to 9.88.

First: TTTTTTTTTAAAACATAATAAAAAATAAAACAACCT [GTGCAC_negctrl_site92]
Second: CAAAAATAATAGAATACATGCAAAAATAAATGTATA [TGCATGCA_site196]
The “gcPBM binding intensity (ln)” value of the first is lower: 9.32 for the first, 9.71 for the second.

First: TACAATAATGATTGTTGTACATTATTGATATTTAAA [XGTACX_site2940]
Second: TTTAATTTTTAATCAGTGCAATATTATATAATATAT
The “gcPBM binding intensity (ln)” value of the first is lower: 9.5 for the first, 9.53 for the second.

Going from “AAAAAAAAACAGAAAACACACAAATTATCTTAGAAT [CACACA_site309]” to “AATAATTCATCATATGCACACACAATACCAAAATGT [CACACA_site7945]”, the “gcPBM binding intensity (ln)” value rises from 9.87 to 10.5.
